{
  "source": "the supplement of paper PMC11417369",
  "note": "± gives the standard deviation of the averaged measurements. This is one part of the list.",
  "data": [
    {"system": "PfAP2-LT AP2 domain (GST-tagged)", "test": "gcPBM binding intensity (ln(normalized median fluorescence intensity)); higher = stronger DNA binding", "summary_of_the_method": "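The highest Masliner-normalised natural-log median intensity across replicate spots of either probe orientation is reported as binding intensity. GST-tagged P. falciparum DNA-binding domains expressed in E. coli were applied for 1 h to an Agilent 4 × 180k array of primer-extended double-stranded 36-bp intergenic genomic probes plus negative controls, and bound protein was detected with Alexa488 anti-GST antibody and scanned at 488 nm.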", "values": [
      {"sequence": "ACATCTGTTATTTGTGGTACTAAAAAAATATATAGT [XGTACX_site8322]", "gcPBM binding intensity (ln)": "8.63 ± 0.36"},
      {"sequence": "TCTTTTTAGATATATACACACCGTGTCTACCTATAC [CACACA_site7551]", "gcPBM binding intensity (ln)": "9.29 ± 0.73"},
      {"sequence": "ATAATATAAATACAAACACACAATTGTGTCCACATT [CACACA_site6920]", "gcPBM binding intensity (ln)": "9.28 ± 0.38"},
      {"sequence": "TTTTTAAATATAAACAAAAAAAAAAAATATATCAAT [XGTACX_negctrl_site328]", "gcPBM binding intensity (ln)": "8.31 ± 0.29"},
      {"sequence": "ATCATATTTATGTTGGTGCATTATGCATGGATTTTA [GTGCAC_site9795]", "gcPBM binding intensity (ln)": "8.74 ± 0.47"},
      {"sequence": "ATTTTTATTTTTATTTGTACTTATATATTCTTAAGC [XGTACX_site4122]", "gcPBM binding intensity (ln)": "8.85 ± 0.47"},
      {"sequence": "TATATGTATAGAAAATGTACATATAAATATATATAT [XGTACX_site3420]", "gcPBM binding intensity (ln)": "8.88 ± 0.45"},
      {"sequence": "TTTTTTTTTTTTTGCACACACCATATTTATAGAAAT [CACACA_site5772]", "gcPBM binding intensity (ln)": "9.21 ± 0.38"},
      {"sequence": "TAAAATTAATTTCTGTTGCACTTATTATTAATTAAC", "gcPBM binding intensity (ln)": "8.73 ± 0.42"},
      {"sequence": "ATATTATACCCGTGTACACATTATAACCATATATAA [CACACA_site5933]", "gcPBM binding intensity (ln)": "8.88 ± 0.42"},
      {"sequence": "AATATAATATAATGCACACATAAAACAAAAAAAAAA [CACACA_site3012]", "gcPBM binding intensity (ln)": "9.22 ± 0.49"},
      {"sequence": "AAATATATCATACAAAGTACTTGGAATTAATATATA [XGTACX_site8907]", "gcPBM binding intensity (ln)": "8.71 ± 0.44"},
      {"sequence": "GTTGATACATGAAGCTGTACATAATATTTGTCATTT [XGTACX_site8628]", "gcPBM binding intensity (ln)": "8.96 ± 0.36"},
      {"sequence": "TCTTTTAAATAACAACATAAATAAATAAATAAATAA [GTGCAC_negctrl_site319]", "gcPBM binding intensity (ln)": "8.28 ± 0.37"},
      {"sequence": "TAATTTTTCCAACTTTGTACAGATATATTAATAAAA [XGTACX_site7856]", "gcPBM binding intensity (ln)": "8.13 ± 0.35"},
      {"sequence": "TAAATTAATAAACAAGTGCATATATATATATATATA", "gcPBM binding intensity (ln)": "9.65 ± 0.67"},
      {"sequence": "TTTTTACTATTTATATGACTAAAAATATATTGAATA [CACACA_negctrl_site188]", "gcPBM binding intensity (ln)": "8.26 ± 0.53"},
      {"sequence": "GTCATATTAATATGTACACACATATTTATATTTATA [CACACA_site6798]", "gcPBM binding intensity (ln)": "8.93 ± 0.47"},
      {"sequence": "TTTTATGTAACATCACGTACTTATATTTAAGTATTC [XGTACX_site7459]", "gcPBM binding intensity (ln)": "8.96 ± 0.47"},
      {"sequence": "CAAGCACACGGACACACACACACACGCGCACGCACA [CACACA_site6307]", "gcPBM binding intensity (ln)": "10.3 ± 0.28"},
      {"sequence": "CAATTTATTTTTATTACACACTATCCAAGTAATTTC [CACACA_site7402]", "gcPBM binding intensity (ln)": "8.79 ± 0.42"},
      {"sequence": "TATAGCAAAAAATTTACACACATGTTTTTTCTATAC [CACACA_site325]", "gcPBM binding intensity (ln)": "9.08 ± 0.42"},
      {"sequence": "GGCATTTTATGAAGTAGTACCATAAATATTAAAGAT [XGTACX_site5287]", "gcPBM binding intensity (ln)": "8.88 ± 0.49"},
      {"sequence": "CTGAAGGAAAAAGAAAGTACTTTTTTTTTTTTGAAG [XGTACX_site5973]", "gcPBM binding intensity (ln)": "8.22 ± 0.68"},
      {"sequence": "CCTTTATTTTATATGTGTACTAAATTGTATATATAT [XGTACX_site8717]", "gcPBM binding intensity (ln)": "8.86 ± 0.42"},
      {"sequence": "ATGTTTTATAAAAGGCGTACACATATGCTTAAGTAA [XGTACX_site6232]", "gcPBM binding intensity (ln)": "8.9 ± 0.35"},
      {"sequence": "AAAAAAAAAATATCATGTACAAATATAATAAAATTT [XGTACX_site3896]", "gcPBM binding intensity (ln)": "8.7 ± 0.55"},
      {"sequence": "AAATTTTTTATGAACACACAAATACACGCACTCAAA [CACACA_site7286]", "gcPBM binding intensity (ln)": "9.1 ± 0.27"},
      {"sequence": "AATAATAAAATAAAGGCATGCACAATATGCTATAAA [TGCATGCA_site645]", "gcPBM binding intensity (ln)": "9.07 ± 0.5"},
      {"sequence": "TAAAATATATAAAACTGTACATTTTAAAGGCACAAC [XGTACX_site8342]", "gcPBM binding intensity (ln)": "8.87 ± 0.37"},
      {"sequence": "TATGTATCAAATAAATGTACATATATATATATATAT [XGTACX_site2189]", "gcPBM binding intensity (ln)": "9.39 ± 0.26"},
      {"sequence": "AATTAAAATAGTAATACACACTTCATAGGAAATGAT [CACACA_site5045]", "gcPBM binding intensity (ln)": "8.84 ± 0.4"},
      {"sequence": "ATGAAAAAATTTAAATGTACATTACATATATTTATT [XGTACX_site2524]", "gcPBM binding intensity (ln)": "8.59 ± 0.45"},
      {"sequence": "TAATATTATATTATATGTACATAACAAATTATATTT [XGTACX_site4296]", "gcPBM binding intensity (ln)": "8.61 ± 0.49"},
      {"sequence": "TTTTTTTCTCTTTTTATTACAAAAAGGGTTTATATA [TGCATGCA_negctrl_site75]", "gcPBM binding intensity (ln)": "8.39 ± 0.61"},
      {"sequence": "ATTATATTAATATATATATATATATATATAATAATA [CACACA_negctrl_site437]", "gcPBM binding intensity (ln)": "8.69 ± 0.3"},
      {"sequence": "ATGAGTAACATATTTGTGCACATATGGTTATTTTTA [GTGCAC_site9541]", "gcPBM binding intensity (ln)": "8.9 ± 0.33"},
      {"sequence": "AAAAAAAATTCCAGTACACACAATAATACTAAAAAT [CACACA_site2801]", "gcPBM binding intensity (ln)": "9.02 ± 0.41"},
      {"sequence": "AAAAATTACAAAAATGCATGTACTATTCATATTTTT [TGCATGCA_site918]", "gcPBM binding intensity (ln)": "8.8 ± 0.52"},
      {"sequence": "ATGCATATAATTATATGTACATATAAGAAATATATA [XGTACX_site517]", "gcPBM binding intensity (ln)": "8.96 ± 0.39"},
      {"sequence": "CATTTATTATGATAAAGTACTTAAATTAATAGATAA [XGTACX_site3566]", "gcPBM binding intensity (ln)": "8.38 ± 0.51"},
      {"sequence": "ATAAAAAACAGTGGCACACATTATGTATCCACCTTT [CACACA_site5958]", "gcPBM binding intensity (ln)": "8.94 ± 0.44"},
      {"sequence": "CATATAAAGATATGAACACACAAAAAGAATATTTCC [CACACA_site6811]", "gcPBM binding intensity (ln)": "9.02 ± 0.43"},
      {"sequence": "AATAATAAAAAATACACACACATATAAATATATTAC [CACACA_site7597]", "gcPBM binding intensity (ln)": "9.51 ± 0.3"},
      {"sequence": "AGGACACATATATGCAAAAAAAAAAAAAAAAAAAAA [TGCATGCA_negctrl_site427]", "gcPBM binding intensity (ln)": "8.41 ± 0.59"},
      {"sequence": "TTCCGAACGACCTAAAGTACATGTATTTCAACTTTT [XGTACX_site1220]", "gcPBM binding intensity (ln)": "8.91 ± 0.47"},
      {"sequence": "TAGTGTATGATAATATGTACATACATTTATATAATA [XGTACX_site6330]", "gcPBM binding intensity (ln)": "8.77 ± 0.47"},
      {"sequence": "TCTTTTTTTTTTTTTTTTTCTTCTTCTCAATATAAA [GTGCAC_negctrl_site303]", "gcPBM binding intensity (ln)": "8.35 ± 0.47"},
      {"sequence": "TTTTATAAAAAAACTATAAAAATATATAGTACTTAA [CACACA_negctrl_site440]", "gcPBM binding intensity (ln)": "8.19 ± 0.38"},
      {"sequence": "TATGCACACAATATATGTACTTATATATTTTAAAAA [XGTACX_site5482]", "gcPBM binding intensity (ln)": "8.91 ± 0.47"},
      {"sequence": "CATAATATGTGGACTTTACACACTTGTTTTAAAATT [CACACA_site819]", "gcPBM binding intensity (ln)": "8.76 ± 0.42"},
      {"sequence": "TGAGATAACAAAAGTTGTACTTTTTTTTTTTTTTTT [XGTACX_site3004]", "gcPBM binding intensity (ln)": "8.53 ± 0.29"},
      {"sequence": "TTTAATAAAAAAATTAAAAATAAAGAAAAAAAAAAA [CACACA_negctrl_site1464]", "gcPBM binding intensity (ln)": "8.18 ± 0.58"},
      {"sequence": "AAATATATATAAAACTCACACATTATCTTATAACCA [CACACA_site5268]", "gcPBM binding intensity (ln)": "8.84 ± 0.35"},
      {"sequence": "TATGTGTATACAATATGTACATATGTTAACTTGTAT [XGTACX_site872]", "gcPBM binding intensity (ln)": "8.88 ± 0.38"},
      {"sequence": "AAAAAATAATATTGTACACACATAAATTCTTTGTCA [CACACA_site5187]", "gcPBM binding intensity (ln)": "8.99 ± 0.42"}
    ]}
  ]
}
